# Test results published in paper PMC4336329 (PLoS ONE, 2015).
# Hit rate of the full screen: of about 310,000 compounds, about 14,000 (4.5%) showed an effect of 50% or more. The effect is printed as a negative number. Some of the results follow.
# Biological target: human ether-à-go-go-related gene (hERG) potassium channel (human, UniProt Q12809)
# Test: primary screen, population patch clamp on CHO cells stably expressing hERG
# 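Also: peak tail current of the secondary pulse compared with the same well before compound.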
# Sequence of human ether-à-go-go-related gene (hERG) potassium channel (Q12809 whole entry, looked up): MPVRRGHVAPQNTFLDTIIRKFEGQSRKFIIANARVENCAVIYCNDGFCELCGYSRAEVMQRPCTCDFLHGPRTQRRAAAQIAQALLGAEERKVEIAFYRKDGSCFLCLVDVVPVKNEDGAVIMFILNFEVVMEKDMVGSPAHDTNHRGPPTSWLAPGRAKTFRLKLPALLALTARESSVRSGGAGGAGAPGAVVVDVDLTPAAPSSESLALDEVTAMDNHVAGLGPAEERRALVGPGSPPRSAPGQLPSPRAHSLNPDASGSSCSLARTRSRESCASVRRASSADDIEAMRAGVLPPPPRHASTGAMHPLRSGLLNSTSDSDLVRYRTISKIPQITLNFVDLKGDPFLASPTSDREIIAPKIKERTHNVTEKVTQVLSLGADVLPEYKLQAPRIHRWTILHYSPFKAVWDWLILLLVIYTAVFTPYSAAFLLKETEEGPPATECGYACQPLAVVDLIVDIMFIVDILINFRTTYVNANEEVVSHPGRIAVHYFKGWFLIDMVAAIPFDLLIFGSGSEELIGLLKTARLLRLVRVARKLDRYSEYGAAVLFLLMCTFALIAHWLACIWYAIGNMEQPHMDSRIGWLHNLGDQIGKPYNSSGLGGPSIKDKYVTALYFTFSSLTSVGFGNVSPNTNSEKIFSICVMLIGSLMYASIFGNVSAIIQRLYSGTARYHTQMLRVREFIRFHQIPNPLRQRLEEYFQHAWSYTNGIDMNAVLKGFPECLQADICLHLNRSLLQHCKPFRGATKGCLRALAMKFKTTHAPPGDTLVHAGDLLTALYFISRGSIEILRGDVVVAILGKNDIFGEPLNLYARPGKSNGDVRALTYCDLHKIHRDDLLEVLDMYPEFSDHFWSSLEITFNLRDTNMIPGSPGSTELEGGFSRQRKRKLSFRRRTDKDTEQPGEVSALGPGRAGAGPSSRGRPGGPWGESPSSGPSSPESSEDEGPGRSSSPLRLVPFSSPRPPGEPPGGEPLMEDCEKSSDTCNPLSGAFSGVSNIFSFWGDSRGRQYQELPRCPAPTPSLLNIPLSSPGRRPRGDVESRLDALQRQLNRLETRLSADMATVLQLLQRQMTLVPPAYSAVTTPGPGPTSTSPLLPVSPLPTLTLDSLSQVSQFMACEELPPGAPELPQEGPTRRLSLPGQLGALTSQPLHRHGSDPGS
row,Structure (SMILES),"hERG current change (%, negative = inhibition) at 10uM"
1,COc1ccccc1N(CC(=O)NCc1ccccc1)C(=O)CCC(=O)Nc1nccs1,14.5%
2,O=C(O)c1cc(N=Nc2ccc(S(=O)(=O)Nc3ccccn3)cc2)ccc1O,7.91%
3,CSc1sc(C(=O)NC(=O)NCc2cccnc2)c(C)c1-c1ccon1,-7.84%
4,Cc1ccccc1C(=O)NC(=S)Nc1cccc(NC(=O)C(C)C)c1,-10.8%
5,c1cc(-c2noc(CC3CCCCC3)n2)ccn1,-5.51%
6,COc1ccc(C(=O)CN(C(=O)c2ccc(Cl)cc2)N2C(=O)C3CCCCC3C2=O)cc1 (stereo not shown),-6.63%
7,COc1ccc(C2NN=C(c3ccc(C)cc3)S2)cc1OC (stereo not shown),12.8%
8,O=C(C1CC(=O)N(c2ccc3c(c2)OCCO3)C1)N1CCN(Cc2ccccc2F)CC1 (stereo not shown),-9.81%
9,COc1ccc(C(=O)c2ccc([N+](=O)[O-])cc2Cl)cc1,-16.2%
10,CN(CC(=O)Nc1ccc(N2CCOCC2)cc1)C(=O)c1cc(S(=O)(=O)N(C)C)ccc1Cl,23%
11,Cc1ccsc1/C=N/NC(=O)c1ccco1,11.1%
12,CCCNS(=O)(=O)c1ccc(CCC(=O)NCCc2ccc(OC)c(OC)c2)cc1,4.46%
13,O=C(c1cc(-c2ccc(Cl)c(Cl)c2)on1)N1CCOCC1,-14.1%
14,CCCCCCC(=O)Nc1nc(C)c(-c2csc(Nc3ccc(Cl)cc3)n2)s1,12.3%
15,CCN1C(=O)CC(NCc2ccc(S(N)(=O)=O)cc2)C1=O (stereo not shown),22.4%
16,Cc1ccc(NC(=O)CO/N=C/c2ccccc2C)c(C)c1,-4.99%
17,Cc1cc(NC(=O)COn2nnc3ccc(Cl)cc32)no1,4.41%
18,CCc1cccc(Nc2cnn(C34C[C@@H]5C[C@@H](CC(CC(=O)O)(C5)C3)C4)c(=O)c2Cl)c1,19.1%
19,CC(=O)N1CCN(C(=O)CC2OC(=O)c3ccccc32)CC1 (stereo not shown),5.88%
20,C=CCOc1ccc(C2/C(=C(/O)c3ccc(OC)cc3)C(=O)C(=O)N2CCN2CCNCC2)cc1 (stereo not shown),9.52%
21,COC(=O)CNC(c1ccccc1)c1cc(C)ccc1NC(=O)c1cccc(Cl)c1 (stereo not shown),-15.4%
22,O=C(Cc1cccs1)N1CCN(S(=O)(=O)c2ccc(F)cc2)CC1,-2.76%

row,Structure (SMILES),"hERG current change (%, negative = inhibition) at 10uM"
1,CCCOc1ccc(N2C(=O)CC(N3CCN(CCN=CC4=C(O)CC(C)(C)CC4=O)CC3)C2=O)cc1 (stereo not shown),-13.2%
2,O=C1Nc2ccccc2C1(O)c1ccccc1 (stereo not shown),12.5%
3,CCOc1ccccc1NC(=O)NC1(C(=O)N2CCN3CCCC3C2)CCCCC1 (stereo not shown),6.9%
4,CC(=O)c1cccc(NC(=S)NNC(=O)c2ccc(C)c([N+](=O)[O-])c2)c1,23.8%
5,O=C1NC(=O)/C(=C\c2ccc(OCc3cccc([N+](=O)[O-])c3)cc2)N1,11.9%
6,Cc1ccc(-c2nnn(CC(=O)N3c4ccccc4CCc4ccccc43)n2)cc1,6.13%
7,Cc1ccc(CNC(=O)COc2ccc(S(=O)(=O)NC(C)C)cc2)cc1,10.5%
8,N#Cc1cccc(C(=O)OCC(=O)NCc2ccco2)c1,5.89%
9,COc1ccc(OC)c(NC(=O)CSc2ncccc2C(=O)O)c1,18.2%
10,COc1ccc(S(=O)(=O)N2CCC(C(=O)NCCN3CCOCC3)CC2)cc1C,5.02%
11,COc1cccc(/C=N/Nc2ccccc2C(=O)O)c1O,13%
12,CCC(C)(C)c1ccc(O)cc1,6.62%
13,CC(C)(C)c1ccc(C(=O)Nc2cnccn2)cc1,-31.7%
14,CC(C)(C)NC(=O)Cn1c(SCC(=O)NCc2cccs2)nc2ccccc21,6.18%
15,O=C(CN1C(=O)c2cccc3cccc(c23)C1=O)N1CCN(Cc2ccc3c(c2)OCO3)CC1,-41.3%
16,Cc1cccc(NC(=O)c2ccc(N3CCCCC3)c([N+](=O)[O-])c2)n1,-2.96%
17,CC(C)CCc1noc(CN(CC2CCC2)CC2CCCO2)n1 (stereo not shown),1.05%
18,CCOC(=O)c1c(-c2ccccc2)oc2ccc(OC)cc12,1.46%
19,COc1cccc(NC(=O)CN(C)C(=O)CN2C(=O)NC(C)(c3ccc(C)cc3)C2=O)c1 (stereo not shown),4.25%
20,CC(C)(C)NC(=O)C(c1ccco1)N(C(=O)Cn1nnc(-c2ccc(F)cc2)n1)c1ccccc1 (stereo not shown),-17.5%
21,CN1CCN(C(=O)c2ccc3c(=O)n4c(nc3c2)CCCCC4)CC1,-0.383%
